The record followed here is paper PMC4336329 (PLoS ONE, 2015).

SMILES strings stand for the structures. About 14,000 (4.5%) of roughly 310,000 compounds showed an effect of 50% or more. The effect is printed as a negative number. Some of the results follow.
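Further: peak tail current of the secondary pulse compared with the same well before compound.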

human ether-à-go-go-related gene (hERG) potassium channel, sequence (Q12809 whole entry, looked up): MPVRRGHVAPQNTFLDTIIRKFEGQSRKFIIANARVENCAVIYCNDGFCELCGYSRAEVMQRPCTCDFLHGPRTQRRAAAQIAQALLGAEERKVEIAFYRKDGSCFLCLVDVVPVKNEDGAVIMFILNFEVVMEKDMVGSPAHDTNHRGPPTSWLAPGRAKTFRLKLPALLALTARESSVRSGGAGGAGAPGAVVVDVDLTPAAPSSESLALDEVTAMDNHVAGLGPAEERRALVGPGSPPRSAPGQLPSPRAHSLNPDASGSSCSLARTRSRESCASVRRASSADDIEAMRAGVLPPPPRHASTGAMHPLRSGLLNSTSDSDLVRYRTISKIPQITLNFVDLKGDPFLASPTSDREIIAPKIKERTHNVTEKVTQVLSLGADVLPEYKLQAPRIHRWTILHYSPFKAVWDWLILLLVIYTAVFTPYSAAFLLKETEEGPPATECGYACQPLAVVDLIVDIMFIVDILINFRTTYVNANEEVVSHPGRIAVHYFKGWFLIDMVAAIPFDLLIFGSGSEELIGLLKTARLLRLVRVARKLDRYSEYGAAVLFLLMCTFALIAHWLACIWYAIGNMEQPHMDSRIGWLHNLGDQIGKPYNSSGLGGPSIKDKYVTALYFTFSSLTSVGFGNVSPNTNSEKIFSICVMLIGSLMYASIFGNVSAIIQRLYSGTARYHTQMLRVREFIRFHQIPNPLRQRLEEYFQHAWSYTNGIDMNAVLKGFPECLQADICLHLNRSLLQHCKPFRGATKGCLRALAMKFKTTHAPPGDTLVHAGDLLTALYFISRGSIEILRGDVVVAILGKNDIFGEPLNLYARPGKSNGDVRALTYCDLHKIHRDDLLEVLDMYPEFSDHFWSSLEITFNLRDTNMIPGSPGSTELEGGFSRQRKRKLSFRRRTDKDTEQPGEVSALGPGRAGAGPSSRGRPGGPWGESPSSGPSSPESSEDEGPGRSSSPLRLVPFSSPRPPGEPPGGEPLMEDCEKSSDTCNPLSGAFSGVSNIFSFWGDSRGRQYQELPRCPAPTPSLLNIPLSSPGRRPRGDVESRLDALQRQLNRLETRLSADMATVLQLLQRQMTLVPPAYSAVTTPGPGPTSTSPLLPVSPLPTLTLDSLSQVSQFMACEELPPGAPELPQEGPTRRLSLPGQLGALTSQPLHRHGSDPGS

The assay addresses human ether-à-go-go-related gene (hERG) potassium channel (human, UniProt Q12809). The assay can be described thus: primary screen, population patch clamp on CHO cells stably expressing hERG.
Consider `CSCC[C@H](N)C(=O)N1CCC(C(=O)N[C@@H](Cc2c[nH]c3ccccc23)C(=O)O)CC1`, for which the “hERG current change (%, negative = inhibition) at 10uM” value is -0.871%. In the case of `O=c1c2ccccc2sc2ccc(C#CC3(O)CCCCC3)cc12`, the “hERG current change (%, negative = inhibition) at 10uM” value was determined as 6.27%.

For `CC1(NC(=O)Cc2csc(-c3cccc(Cl)c3)n2)CCS(=O)(=O)C1` (stereo not drawn), the “hERG current change (%, negative = inhibition) at 10uM” value is recorded as 13.9%.

As for `Cc1ccc(S(=O)(=O)NCCCCCC(=O)NCCc2ccccc2)cc1`, the “hERG current change (%, negative = inhibition) at 10uM” value turned out to be 11.1%. As for `O=C(NCc1ccccc1)c1cccc(COc2cccc(Cl)c2)c1`, the “hERG current change (%, negative = inhibition) at 10uM” value was -1.36%. With `CCOc1ccc(NC(=S)NN2C(C)CCCC2C)cc1` (stereo not drawn), the “hERG current change (%, negative = inhibition) at 10uM” value came out at 6.62%.

Take `O=S(=O)(Nc1ccc(O)cc1)c1cccc2cccnc12`: the “hERG current change (%, negative = inhibition) at 10uM” value was 10.2%. Take `CCCc1nc2ccc(NC(=O)NCCC(=O)OCC)cc2c(=O)n1Cc1cccc(Cl)c1`: the “hERG current change (%, negative = inhibition) at 10uM” value is given as -7.18%. Turning to `COC(=O)c1ccc(/C=C2/SC(=S)N(CCCC(=O)Nc3ccc(O)cc3)C2=O)cc1`, the “hERG current change (%, negative = inhibition) at 10uM” value was determined as 18.1%. In the case of `Cn1c(SCC(=O)Nc2ccccc2F)nnc1-c1cccs1`, the “hERG current change (%, negative = inhibition) at 10uM” value is listed as -24.2%. For `Cn1nnnc1-c1cc(Cl)cc(Cl)c1`, the “hERG current change (%, negative = inhibition) at 10uM” value stood at 12%. Take `COc1cccc(/C=N/NC(=O)c2c(-c3ccccc3)noc2C)c1`: the “hERG current change (%, negative = inhibition) at 10uM” value came out at 5.76%.

Turning to `COCC(=O)N1CCCC(C(=O)c2ccc(-c3ccccc3)c(F)c2)C1` (stereo not drawn), the “hERG current change (%, negative = inhibition) at 10uM” value is recorded as -23.3%. `COc1ccc(Nc2nnc(C)c3ccccc23)cc1`: the “hERG current change (%, negative = inhibition) at 10uM” value is on record as -18.1%.

In the case of `Cc1nc(C(F)(F)F)ccc1C(=O)NCC(O)c1ccccc1` (stereo not drawn), the “hERG current change (%, negative = inhibition) at 10uM” value is listed as 8.53%.

As for `COc1ccccc1Cc1noc(C(C)(C)NC(=O)c2ccccc2)n1`, the “hERG current change (%, negative = inhibition) at 10uM” value is reported as -1.62%. In the case of `CC(C)(C)c1ccc(/C=N/n2cnnc2)cc1`, the “hERG current change (%, negative = inhibition) at 10uM” value is recorded as 4.95%.

Take `COc1ccc(Cl)cc1NC(=O)COC(=O)C(CC(C)C)N1C(=O)C2CC=CCC2C1=O` (stereo not drawn): the “hERG current change (%, negative = inhibition) at 10uM” value was 3.88%. With `Cc1sc(NC(=O)Cc2ccc3c(c2)OCO3)nc1-c1ccc2c(c1)CCN2C(=O)c1ccc(F)cc1` the figure was 4.78%; with `CC1CCC(C(C)C)C(OCC(O)CN2CCCC(C)C2)C1.Cl` (stereo not drawn), -31.6%; with `CCOc1ccccc1C(=O)N1CCN=C1SCc1cccnc1`, -2.67%. Regarding `Cc1ccc(OCC(=O)Nc2ccon2)c([N+](=O)[O-])c1`, the “hERG current change (%, negative = inhibition) at 10uM” value is reported as 11.9%. With `NS(=O)(=O)c1ccc(CCNC(=O)CC(NC(=O)c2ccccc2Cl)c2ccccc2)cc1` (stereo not drawn) the figure was 12.6%; with `COc1ccc(CN2C3CCCC2CC(NC(=O)/C=C/c2ccccc2)C3)cc1` (stereo not drawn), -88%.

As to `CCOc1cccc(OCCCOc2cccc3cccnc23)c1`, the “hERG current change (%, negative = inhibition) at 10uM” value is listed as -8.52%. On to `COc1ccc(/C=N\NC(=O)CCN2CCN(c3ccccc3)CC2)cc1OC`, for which the “hERG current change (%, negative = inhibition) at 10uM” value is -56.9%. For the molecule `Cc1cc(C)n(CCc2nc(-c3ccc(C(C)(C)C)cc3)cs2)n1`, the “hERG current change (%, negative = inhibition) at 10uM” value worked out at 2.1%. With `O=C(NCc1cccnc1)C1CCCN1S(=O)(=O)c1ccc(Cl)cc1` (stereo not drawn), the “hERG current change (%, negative = inhibition) at 10uM” value is -22.2%. Take `C#CCN(C(=O)c1ccc(OC)c(OC2CCN(C(C)C)CC2)c1)C1CCCCC1`: the “hERG current change (%, negative = inhibition) at 10uM” value was -46.4%. Next, `Cc1ccc2cccc(SCC(=O)NCc3ccco3)c2n1`: 1.96%; `Cc1cccc(NC2=NC3(CCCCC3)N=C(N)N2)c1C`: 16.3%; `O=C(COc1ccc(S(=O)(=O)N2CCOCC2)cc1Cl)NC1CC1`: 3.02%. As for `CC(=O)Nc1ccc2c(c1)CCc1ccccc1-2`, the “hERG current change (%, negative = inhibition) at 10uM” value was 15.1%.

In the case of `CC(C)(C)CC(=O)Nc1ccc(-c2cn3cccnc3n2)cc1`, the “hERG current change (%, negative = inhibition) at 10uM” value stood at 6.66%. With `CSc1ncc(Cl)c(C(=O)C(C#N)c2nc3c(C)cc(C)cc3c(=O)[nH]2)n1` (stereo not drawn) the figure was 24.6%; with `Nc1nc(-c2ccc(F)cc2)cs1`, -1.1%. Next, `COc1cc(C2C=C(Nc3ccccc3)C(=O)N2c2ccccc2)ccc1O` (stereo not drawn): 0.128%; `COC(=O)c1ccc(C2C(C(C)=O)=C(O)C(=O)N2CCO)cc1` (stereo not drawn): 6.11%; `CC(=O)Nc1c2c(nn1-c1cccc(Cl)c1)CS(=O)(=O)C2`: -16.8%. As for `Cc1cc(C(=O)NC(C)c2ccc3c(c2)OCO3)cs1` (stereo not drawn), the “hERG current change (%, negative = inhibition) at 10uM” value is listed as -8.95%. `CCOC(=O)N1CCC(NC(=O)c2cc3c(=O)[nH]c4ccccc4c3n2C)CC1`: the “hERG current change (%, negative = inhibition) at 10uM” value was -3.23%.

Regarding `CC(=O)C12OC1CC1C3CCC4=CC(=O)CCC4(C)C3CCC12C` (stereo not drawn), the “hERG current change (%, negative = inhibition) at 10uM” value is given as -1.96%. Turning to `CCN(CC)C(=O)c1cccc2c1C(=O)c1ccccc1-2`, the “hERG current change (%, negative = inhibition) at 10uM” value amounted to 0.818%. For `N=C(N)c1ccc(/C=C/c2ccc(C(=N)N)cc2O)cc1.O=S(=O)(O)CCO`, the “hERG current change (%, negative = inhibition) at 10uM” value came to 5.09%. In the case of `O=C(Nc1ccc(S(=O)(=O)Nc2cnc3ccccc3n2)cc1)c1ccccc1Br`, the “hERG current change (%, negative = inhibition) at 10uM” value is given as -10.5%.
